± gives the standard deviation of the averaged measurements. The list shows a part of the results.

In the assay the test system is PfAP2-G AP2 domain (GST-tagged). Nature of the assay: gcPBM binding intensity (ln(normalized median fluorescence intensity)); higher = stronger DNA binding. The method, boiled down:
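An Agilent 4 × 180k array carrying primer-extended double-stranded 36-bp intergenic genomic probes and negative controls received GST-tagged P. falciparum DNA-binding domains expressed in E. coli, about 25 μg on average, for 1 h. The binding buffer contained 1× PBS, 1% milk, 0.2 mg/ml BSA, 0.5% salmon testes DNA and 0.03% Triton X-100. Binding intensity is the top Masliner-normalised natural-log median intensity across replicate spots of either probe orientation, read after Alexa488 anti-GST antibody staining and a 488 nm scan.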
As for “TTTCAATAATAAAAAACACACACAAAAAAAAATAAT [CACACA_site8905]”, the “gcPBM binding intensity (ln)” value is 10.21 ± 0.049.
For “AAAGTAAATTTAAGCACACACAACGAATTTTTATAC [CACACA_site1959]” the value was 10.2 ± 0.035; for “GCATATAAAATAAATCGTACATGTAAAACATAATTA [XGTACX_site7077]”, 11 ± 0.69.
For the sequence “TTTCTTTTTTCTGTTATTATTATAAAACGATATTTA [TGCATGCA_negctrl_site167]”, the “gcPBM binding intensity (ln)” value came to 9.76 ± 0.042.
With “TACACATACCCATACACACGCATAGAAACATACGAA [CACACA_site5212]” the figure was 10.3 ± 0.35.
“TATTTTTATTTTAATTGTACTTTTTAATTAATAATA [XGTACX_site8302]”: the “gcPBM binding intensity (ln)” value was found to be 11.4 ± 0.93.
With “GATAGAAAAAAATAATGTACACACACATATATGTTT [XGTACX_site392]”, the “gcPBM binding intensity (ln)” value is 11.2 ± 0.71.
For the sequence “GGCAGCAATTTAGTTACACACATATATAGGTATACA [CACACA_site76]”, the “gcPBM binding intensity (ln)” value is 10.1 ± 0.099.
For the sequence “TGTGTCAAATAATTAATGTCATATATATTTTGTATA [CACACA_negctrl_site1479]”, the “gcPBM binding intensity (ln)” value worked out at 9.675 ± 0.078.
Take “TGCTTATATCTTATAATATTTATACATCATAATAAG [CACACA_negctrl_site629]”: the “gcPBM binding intensity (ln)” value stood at 9.7 ± 0.11.
On to “ACAAAATAAACGGCTGCACACAAGAAGCACAATATT [CACACA_site3690]”, for which the “gcPBM binding intensity (ln)” value turned out to be 10.19 ± 0.064.
Turning to “TTTTTTTTTTTTATATGTACTAATAATCTTTTTTTT [XGTACX_site3552]”, the “gcPBM binding intensity (ln)” value stood at 11 ± 0.93.
As to “GCTGAAAGGATAAAGGTGCATATTTTTTAAAAAATT [GTGCAC_site9487]”, the “gcPBM binding intensity (ln)” value turned out to be 10.1 ± 0.24.
In the case of “AATATTTTATATGTAGTGCATTACTATAGGATTTAT [GTGCAC_site9424]”, the “gcPBM binding intensity (ln)” value amounted to 10.3 ± 0.3.
On to “ACAATAATTTCCATCACACATATATTTATATATTAC [CACACA_site6003]”, for which the “gcPBM binding intensity (ln)” value came to 10.05 ± 0.078.
Take “TTGCATCTACATTTATGTACATATCTTATGATAAAT [XGTACX_site2146]”: the “gcPBM binding intensity (ln)” value came out at 11.1 ± 0.61.
On to “TAACTGATATATAAAACACACATCATAAAAATATAA [CACACA_site6499]”, for which the “gcPBM binding intensity (ln)” value turned out to be 9.835 ± 0.064.
For the sequence “ATACATATTCTTATTTGTACTTATTATAAAATGGTC [XGTACX_site6584]”, the “gcPBM binding intensity (ln)” value came out at 11.2 ± 0.83.
For “TCAAAATGTTACAAATTATGTTGGCTAAAATTTTAA [TGCATGCA_negctrl_site188]” the value was 10 ± 0.18.
Turning to “TTGAACCTGATAAATACACACAATATAGATTTTTTT [CACACA_site7091]”, the “gcPBM binding intensity (ln)” value worked out at 9.88 ± 0.057.
In the case of “AATTATACTCACGTTACACACACACTATATATATAT [CACACA_site9375]”, the “gcPBM binding intensity (ln)” value was determined as 10.29 ± 0.092.
Take “TATAATATAATATTTTGTACATATGATAAAAAAAAA [XGTACX_site6858]”: the “gcPBM binding intensity (ln)” value came out at 10.8 ± 0.67.
With “ACACATATAAATAAAACATGCATATGTAAATATATA [TGCATGCA_site403]” the figure was 9.72 ± 0.2.
Consider “AGATATATTTTTTAAATTTAAAAATTATAAAATTTA [CACACA_negctrl_site533]”, for which the “gcPBM binding intensity (ln)” value worked out at 9.655 ± 0.049.
Turning to “AAATATATCTTCTTTGCACACTTAAAGGGAAGTGAT [CACACA_site343]”, the “gcPBM binding intensity (ln)” value came out at 10.02 ± 0.049.
For “AGAATACATCTATGAACACACAGAGTTTTAAAAAAT [CACACA_site5514]”, the “gcPBM binding intensity (ln)” value was 10 ± 0.17.
With “GTATGTATGTATGTATGTACGTATGTATGTATATAT [XGTACX_site3369]” the figure was 11.6 ± 0.98; with “AATAATTATAAAAAATGTACAAAAAAAAAAAAAAAA [XGTACX_site3681]”, 10.5 ± 0.83; with “TTTTTCATTTAACAGAAGGGAGATAAAAAAAAAAAA [TGCATGCA_negctrl_site261]”, 9.86 ± 0.3.
For the sequence “ATATTATTTTAAAGTACACACATATATTGATATATA [CACACA_site7153]”, the “gcPBM binding intensity (ln)” value was determined as 11.5 ± 1.
Turning to “ATTTTTAATTGAATCACACATTTCCTTTCTTTTGTG [CACACA_site4438]”, the “gcPBM binding intensity (ln)” value came out at 10.22 ± 0.035.
With “AAAATAATATTTAATACACACATAATTATAATATAA [CACACA_site782]”, the “gcPBM binding intensity (ln)” value is 9.845 ± 0.035.
Regarding “TTAAAAAGAAAGTTCACACACATATATATGACGGAA [CACACA_site2602]”, the “gcPBM binding intensity (ln)” value was 10.14 ± 0.014.
For “ATTAAAAATAAGAAGAGTACATATAATATATATACA [XGTACX_site3092]”, the “gcPBM binding intensity (ln)” value worked out at 11.3 ± 0.83.
In the case of “ACCTTTTGGATTATATGTACATATATATATATATAT [XGTACX_site2687]”, the “gcPBM binding intensity (ln)” value is 11.4 ± 0.79.
For “TTAACATAGATATATACACACCAATGATGGCATTTA [CACACA_site6840]” the value was 9.75 ± 0.042; for “TATATATATATATATATACACACTATATAATTCAAA [CACACA_site1023]”, 10 ± 0.4; for “TTTTTTTTTTTTTAGAGTACACACTTTTTTACATTT [XGTACX_site8159]”, 11.5 ± 1.1.
For the sequence “CATAAAATATAAAACACACACACATATATTTATATA [CACACA_site6247]”, the “gcPBM binding intensity (ln)” value stood at 10.04 ± 0.021.
With “AAATAAAAGTTCACCTGTACACACATATATATATGT [XGTACX_site3513]” the figure was 11.5 ± 0.66; with ATATATAATACTACAGTGCAATATATTATATTTGTT, 10.1 ± 0.2.
As for “TTCCTCTTAAAATATACACACTGATTTAAGAAAAAA [CACACA_site5770]”, the “gcPBM binding intensity (ln)” value was 9.96 ± 0.28.
For GCAAATCATGCTATGGTGCATATGTAAGATGAGCAT, the “gcPBM binding intensity (ln)” value amounted to 9.975 ± 0.078.
Consider “TTGTGATTATTATATTGTACAATAAGTATTAAAGAA [XGTACX_site2753]”, for which the “gcPBM binding intensity (ln)” value came out at 11 ± 0.64.
Turning to “ATACTAAATATAAATTGTACTTTATTTATATTGAGA [XGTACX_site8699]”, the “gcPBM binding intensity (ln)” value is 11 ± 0.81.

(Values after the supplement of paper PMC11417369.)
